A word on the EC50: it is the concentration giving half of the maximal effect. One may read the TGI as how far tumour growth fell short of that in controls.

Changes are numbered by the printed parent chain.

The target of one data set is T1, TF antigen (Homo sapiens, UniProt P13726).
T1 construct: with the extracellular segment of aa 33-aa 251; His; made in house; host or cells: HEK293-EBNA
As to the kind of experiment: Affinity ELISA before and after conjugation with B81. It counts as binding. The settings on record: antibody before and after conjugation with B81 (DL-01), DAR8 method. A general note: In an ELISA, binding on a coated surface is turned into a signal by an enzyme label.

Data set [1] has as its target T2, h.TF-His (Homo sapiens, UniProt P13726).
T2 construct: with the extracellular segment of aa 33-aa 251; His; made in house; host or cells: HEK293-EBNA
Put plainly: Antigenic protein-based ELISA on human TF-His. It counts as binding. To be noted: for h.TF-His EC50: coated human TF-his protein; for binding activity (in words): to human/cynomolgus TF-his and TF-positive cells.

The subject of data set [2] is c.TF-His. Put plainly: Antigenic protein-based ELISA on cynomolgus monkey TF-His. To be noted: coated cynomolgus monkey TF-his protein. Format: binding.
Data set [3] concerns the target T2, h.TF-His. Put plainly: Dynamic affinity by ForteBio, human TF-His. It counts as binding.
Data set [4] in a line: Serum stability in human serum. The settings on record: 20 μg/mL, 37° C., 14 days, ELISA. Format: in vitro ADME.
In data set [5] the test system is TF antigen-positive NCI-H358 cells. As to the kind of experiment: Cell-based ELISA on NCI-H358 cells. The settings on record: fixed NCI-H358 cells.
The test system of another data set is NCI-H358 cells. Put plainly: Endocytic activity by flow cytometry (FACS). Format: cell-based. (A flow cytometer gives signals particle by particle.)
For data set [6], the system named is subcutaneous KYSE520 xenograft. As to the kind of experiment: In vivo efficacy in subcutaneous KYSE520 xenograft. The settings on record: for anti-tumor effects in mice (in words): after the conjugation with B81; for TGI: i.v., QW*3. Set-up: species or system Balb/c Nude mice.
Data set [7] can be described thus: Antibody hydrophilicity/hydrophobicity assay by HIC. It counts as physicochemical. To be noted: retention on hydrophobic chromatography column.
For data set [8], the system named is TF low/medium-expressing cell line NCI-H358. As to the kind of experiment: Flow cytometry cell binding, NCI-H358. It counts as cell-based.
The test system of data set [9] is TF high-expressing cell line KYSE520. Put plainly: Flow cytometry cell binding, KYSE520. It counts as cell-based.
The subject of data set [10] is TF-positive tumor cells KYSE520. As to the kind of experiment: In vitro killing activity assay on ADCs. Format: cell-based. To be noted: after the conjugation with B81, 120 h, CCK8.
Data set [11] has as its system c.TF-His. Put plainly: Dynamic affinity by ForteBio, cynomolgus TF-His. It counts as binding, cynomolgus monkey. On the technique in general: In BLI a coated tip is dipped into the sample, and binding shifts an interference pattern.
Data set [12] deals with coagulation initiated by TF on the cell surface (MDA-MB-231 cells). Put plainly: Effect on coagulation initiated by TF-positive cells in human plasma. The settings on record: combining the results of the two experiments. Format: cell-based.

T1 sequence (P13726 33-251): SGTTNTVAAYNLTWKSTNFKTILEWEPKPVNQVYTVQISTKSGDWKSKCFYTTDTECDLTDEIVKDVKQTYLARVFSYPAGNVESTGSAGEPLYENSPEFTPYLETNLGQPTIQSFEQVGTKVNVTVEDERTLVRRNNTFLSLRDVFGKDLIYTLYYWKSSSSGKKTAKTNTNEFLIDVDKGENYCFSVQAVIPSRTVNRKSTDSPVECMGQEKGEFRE
T2 sequence (P13726 33-251): as above

B1: 22F11H5-hz1 (antibody)
heavy: QVQLVQSGAEVKQPGASVKVSCKASGYTFTTYWMHWVRQAPGQGLEWMGMIDPSDSYTTYAQKFQGRVTLTVDTSTSTAYMELSSLRSEDTAVYYCARGSGPGLFAYWGQGTLVTVSS[sequence of human IgG1 constant region omitted]
light: DIQETQSPSSLSASVGDRVTITCRASQDIRNYLNWYQQKPGKAPKLLIYHTSRLQSGVPSRFSGSGSGTDYTLTISSLQPEDFATYYCQQGNMPPYTFGQGTKVEIKRTVAAPSVFIFPPSDEQLKSGTASVVCLLNNFYPREAKVQWKVDNALQSGNSQESVTEQDSKDSTYSLSSTLTLSKADYEKHKVYACEVTHQGLSSPVTKSFNRGEC
With B1, the EC50 with TF antigen was 5.15 ng/mL. In addition, in the data set with h.TF-His [1], the “h.TF-His EC50” value turned out to be 8.577 ng/mL and the “binding activity (in words)” value is recorded as “good binding activity”. In addition, the “c.TF-His EC50” value in the data set with c.TF-His [2] came to 11.41 ng/mL. Besides, in the data set with h.TF-His [3], the ka was found to be 302000 M⁻¹ s⁻¹ and the kdis came out at 0.00296 s⁻¹. In data set [4], the “change in affinity after storage in human serum” value was “no significant change in affinity”. In data set [5], the “NCI-H358 EC50” value came out at 11.95 ng/mL. Moreover, the “endocytosis rate compared with reference antibody (in words)” value in the data set on NCI-H358 cells is on record as “substantially comparable to that of the reference antibody”. Besides, the “anti-tumor effects in mice (in words)” value in [6] is given as “good anti-tumor effects”. The molecule also came in with an HIC in [7] of 10.89 min. For the same molecule, the “NCI-H358 EC50” value in data set [8] stood at 67.09 ng/mL. Moreover, in data set [9], the “KYSE520 EC50” value was 35.7 ng/mL. In addition, the “killing IC50 compared with reference antibody ADC (in words)” value in data set [10] is on record as “substantially comparable to that of the reference antibody ADC”. Besides, in the data set with c.TF-His [11], the ka came to 324000 M⁻¹ s⁻¹ and the kdis came out at 0.00411 s⁻¹.

B2: 22F11H5-hz1-B81: ADC of antibody 22F11H5-hz1 with toxin-Linker B81 (DL-01), prepared by the TF-ADC (DAR8) method (conjugate)
heavy: B1 heavy
light: B1 light
With B2, the EC50 in the data set with TF antigen is listed as 8.83 ng/mL. Moreover, the TGI is 74.7% in [6] (first experiment, 1 mg/kg) and 91.4% in data set [6] (first experiment, 3 mg/kg).

B3: 27H8H3-hz1-B81: ADC of antibody 27H8H3-hz1 with toxin-Linker B81 (DL-01), prepared by the TF-ADC (DAR8) method (conjugate)
heavy: B1 heavy with Q13K, T59S, A97T
light: B1 light with D28G, R30S, Q55H, G66V, Y71F, Y87F, M93T, P94L
In the case of B3, the EC50 with TF antigen is recorded as 3.43 ng/mL. Moreover, in [6] (second experiment, 1 mg/kg), the TGI is 52.8%.

B4: 2B12B10-hz1 (antibody)
heavy: EVQLVESGGGLVQPGGSLRLSCAASGFAFSDSGMHWVRQAPGKGLEWVAYISRDSNTIYYADSVKGRFTISRDNAKNSLYLQMNSLRAEDTAVYYCGRRYYGDYFDYWGQGTLVTVSS[sequence of human IgG1 constant region omitted]
light: DIVLTQSPATLSLSPGERATLSCRASQRVTNYLHWYQQKPGQSPRLLIKYASQSISGIPARFSGSGSGTDFTLTISSLEPEDFAVYFCQQSYNWPLTFGQGTKVEIKRTVAAPSVFIFPPSDEQLKSGTASVVCLLNNFYPREAKVQWKVDNALQSGNSQESVTEQDSKDSTYSLSSTLTLSKADYEKHKVYACEVTHQGLSSPVTKSFNRGEC
In turn, B4 had an EC50 with TF antigen of 6.65 ng/mL. In the data set with h.TF-His [1], the “h.TF-His EC50” value worked out at 6.724 ng/mL and the “binding activity (in words)” value is reported as “good binding activity”. In addition, the “c.TF-His EC50” value in the data set with c.TF-His [2] is on record as 13.63 ng/mL. The “effect on human coagulation (in words)” value in data set [12] is on record as “least effect on human coagulation”. In the data set with h.TF-His [3], this molecule had a ka of 209000 M⁻¹ s⁻¹ and a kdis of 0.00289 s⁻¹. Besides, in data set [5], the “NCI-H358 EC50” value turned out to be 3.877 ng/mL. Also, the “endocytosis rate compared with reference antibody (in words)” value with NCI-H358 cells is “substantially comparable to that of the reference antibody”. Moreover, the HIC in data set [7] was found to be 12.56 min. Further, in data set [8], the “NCI-H358 EC50” value is 187.4 ng/mL. The “KYSE520 EC50” value in data set [9] came to 140.3 ng/mL. Moreover, the “killing IC50 compared with reference antibody ADC (in words)” value in data set [10] is recorded as “substantially comparable to that of the reference antibody ADC”. In the data set with c.TF-His [11], the ka was determined as 344000 M⁻¹ s⁻¹ and the kdis was found to be 0.0116 s⁻¹.

B5: 30G11B7-hz1-B81: ADC of antibody 30G11B7-hz1 with toxin-Linker B81 (DL-01), prepared by the TF-ADC (DAR8) method (conjugate)
heavy: B4 heavy with Q13K, A28T, S32Y, H35F, D54G, N56T, Y95F, G97T
light: EIVLTQSPDFQSVTPKEKVTITCRASQSISNYLHWYQQKPDQSPKLLIKYASQSISGVPSRFSGSGSGTDFTLTINSLEAEDAATYFCQQSYNWPLTFGQGTKVEIKRTVAAPSVFIFPPSDEQLKSGTASVVCLLNNFYPREAKVQWKVDNALQSGNSQESVTEQDSKDSTYSLSSTLTLSKADYEKHKVYACEVTHQGLSSPVTKSFNRGEC
As for B5, the EC50 with TF antigen was 7.75 ng/mL. The TGI in data set [6] (first experiment, 1 mg/kg) stood at 62.6%; in [6] (first experiment, 3 mg/kg), 91.8%.

B6: 30G11B7-hz1 (antibody)
heavy: B4 heavy with Q13K, A28T, S32Y, H35F, D54G, N56T, Y95F, G97T
light: B5 light
In turn, B6 displayed an EC50 with TF antigen of 7.68 ng/mL. Besides, in the data set with h.TF-His [1], the “h.TF-His EC50” value is given as 7.912 ng/mL and the “binding activity (in words)” value is recorded as “good binding activity”. Further, the “c.TF-His EC50” value in the data set on c.TF-His [2] was determined as 20.79 ng/mL. In the data set with h.TF-His [3], the ka came out at 197000 M⁻¹ s⁻¹ and the kdis turned out to be 0.00506 s⁻¹. For the same molecule, the “NCI-H358 EC50” value in [5] turned out to be 4.727 ng/mL. For the same molecule, in the data set on NCI-H358 cells, the “endocytosis rate compared with reference antibody (in words)” value is reported as “substantially comparable to that of the reference antibody”. Moreover, in data set [7], the HIC amounted to 12.02 min. Also, in data set [8], the “NCI-H358 EC50” value was 145.1 ng/mL. In [9], the “KYSE520 EC50” value was 138.3 ng/mL. Moreover, the “killing IC50 compared with reference antibody ADC (in words)” value in data set [10] is reported as “substantially comparable to that of the reference antibody ADC”. In the data set on c.TF-His [11], this molecule returned a ka of 364000 M⁻¹ s⁻¹ and a kdis of 0.053 s⁻¹.

B7: 2B12B10-hz1-B81: ADC of antibody 2B12B10-hz1 with toxin-Linker B81 (DL-01), prepared by the TF-ADC (DAR8) method (conjugate)
heavy: B4 heavy
light: B4 light
B7 yielded an EC50 with TF antigen of 3.76 ng/mL. This molecule returned a TGI in data set [6] (second experiment, 1 mg/kg) of 41.4%.

B8: 30G11B7 (conjugate)
heavy: B4 heavy with Q13K, A28T, S32Y, H35F, D54G, N56T, Y95F, G97T
light: B5 light
In the case of B8, the “anti-tumor effects in mice (in words)” value in data set [6] is reported as “good anti-tumor effects”.

Source of the values: US20250333541A1, “ANTIBODY, AND DRUG CONJUGATE AND USE THEREOF” (EVOPOINT BIOSCIENCES CO., LTD., priority 2022, published 2025).
